The values below come from US20180179267A1 (published 2018).

Test [1] addresses T1, LukGH of S. aureus USA300 TCH1516 (UniProt Q2FFA2 28-351; P21224 30-338).
T1 chain 1: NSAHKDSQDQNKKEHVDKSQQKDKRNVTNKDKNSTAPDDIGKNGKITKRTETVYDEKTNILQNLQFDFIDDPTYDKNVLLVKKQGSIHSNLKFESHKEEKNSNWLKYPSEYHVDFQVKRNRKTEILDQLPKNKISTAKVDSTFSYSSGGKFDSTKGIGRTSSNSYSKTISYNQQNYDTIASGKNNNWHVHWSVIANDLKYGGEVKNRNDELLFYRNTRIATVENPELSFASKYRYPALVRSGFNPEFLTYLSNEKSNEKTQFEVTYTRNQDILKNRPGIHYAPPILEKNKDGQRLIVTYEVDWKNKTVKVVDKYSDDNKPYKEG
T1 chain 2: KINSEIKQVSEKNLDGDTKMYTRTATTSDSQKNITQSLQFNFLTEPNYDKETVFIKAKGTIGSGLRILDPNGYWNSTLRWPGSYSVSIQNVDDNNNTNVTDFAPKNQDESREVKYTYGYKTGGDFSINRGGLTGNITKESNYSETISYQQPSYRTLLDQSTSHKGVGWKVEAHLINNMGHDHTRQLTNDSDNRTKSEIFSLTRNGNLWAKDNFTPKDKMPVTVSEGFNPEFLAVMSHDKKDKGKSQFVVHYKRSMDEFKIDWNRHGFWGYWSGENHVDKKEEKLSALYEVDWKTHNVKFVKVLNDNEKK
The test can be described thus: ForteBio. Background: Biolayer interferometry detects binding as a change in optical thickness at a sensor tip.

A further test addresses T2, LukGH_MRSA252.
T2 chain 1: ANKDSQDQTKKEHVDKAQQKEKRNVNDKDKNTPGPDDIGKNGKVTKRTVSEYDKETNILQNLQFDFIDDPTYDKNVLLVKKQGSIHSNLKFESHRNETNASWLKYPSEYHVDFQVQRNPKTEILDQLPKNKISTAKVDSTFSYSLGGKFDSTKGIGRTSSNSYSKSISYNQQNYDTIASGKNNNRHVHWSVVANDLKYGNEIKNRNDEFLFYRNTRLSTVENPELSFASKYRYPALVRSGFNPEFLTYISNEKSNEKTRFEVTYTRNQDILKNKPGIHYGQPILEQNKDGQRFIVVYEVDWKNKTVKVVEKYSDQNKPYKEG
T2 chain 2: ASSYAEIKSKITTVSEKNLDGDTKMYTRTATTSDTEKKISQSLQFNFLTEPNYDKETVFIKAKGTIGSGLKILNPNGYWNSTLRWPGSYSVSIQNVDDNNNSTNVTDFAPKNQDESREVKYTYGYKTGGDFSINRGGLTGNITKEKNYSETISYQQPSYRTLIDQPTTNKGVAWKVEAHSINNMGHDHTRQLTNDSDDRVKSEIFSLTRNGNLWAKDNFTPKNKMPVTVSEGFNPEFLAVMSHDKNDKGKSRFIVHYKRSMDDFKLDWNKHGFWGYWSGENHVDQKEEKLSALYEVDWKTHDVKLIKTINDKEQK
Description: ForteBio.

A further test deals with T3, LukGH_H19.
T3 chain 1: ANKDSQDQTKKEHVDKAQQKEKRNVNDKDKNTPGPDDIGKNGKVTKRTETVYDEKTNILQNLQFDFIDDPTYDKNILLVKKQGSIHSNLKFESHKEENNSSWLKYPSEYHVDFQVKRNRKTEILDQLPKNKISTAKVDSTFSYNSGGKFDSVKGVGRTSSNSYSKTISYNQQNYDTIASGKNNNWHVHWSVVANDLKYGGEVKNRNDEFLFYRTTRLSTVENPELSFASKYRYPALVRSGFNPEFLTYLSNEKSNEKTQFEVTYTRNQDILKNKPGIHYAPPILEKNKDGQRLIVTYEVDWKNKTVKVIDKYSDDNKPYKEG
T3 chain 2: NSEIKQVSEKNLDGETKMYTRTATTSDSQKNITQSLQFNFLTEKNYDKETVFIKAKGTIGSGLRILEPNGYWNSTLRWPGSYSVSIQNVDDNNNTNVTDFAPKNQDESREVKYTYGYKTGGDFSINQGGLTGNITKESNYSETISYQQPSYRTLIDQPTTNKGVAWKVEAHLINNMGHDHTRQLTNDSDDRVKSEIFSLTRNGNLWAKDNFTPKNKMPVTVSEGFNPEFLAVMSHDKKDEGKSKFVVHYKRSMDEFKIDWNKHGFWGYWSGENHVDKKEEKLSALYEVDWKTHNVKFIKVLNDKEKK
The test can be described thus: ForteBio.

The next test deals with T4, LukGH_MSHR1132.
T4 chain 1: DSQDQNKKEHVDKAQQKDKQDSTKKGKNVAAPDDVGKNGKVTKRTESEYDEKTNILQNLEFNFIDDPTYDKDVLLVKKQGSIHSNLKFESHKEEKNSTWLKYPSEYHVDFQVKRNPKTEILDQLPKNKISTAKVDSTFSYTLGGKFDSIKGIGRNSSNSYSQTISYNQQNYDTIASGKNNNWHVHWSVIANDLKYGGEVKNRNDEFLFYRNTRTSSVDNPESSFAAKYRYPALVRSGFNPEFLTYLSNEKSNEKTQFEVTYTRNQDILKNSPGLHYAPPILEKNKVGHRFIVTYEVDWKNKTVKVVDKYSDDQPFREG
T4 chain 2: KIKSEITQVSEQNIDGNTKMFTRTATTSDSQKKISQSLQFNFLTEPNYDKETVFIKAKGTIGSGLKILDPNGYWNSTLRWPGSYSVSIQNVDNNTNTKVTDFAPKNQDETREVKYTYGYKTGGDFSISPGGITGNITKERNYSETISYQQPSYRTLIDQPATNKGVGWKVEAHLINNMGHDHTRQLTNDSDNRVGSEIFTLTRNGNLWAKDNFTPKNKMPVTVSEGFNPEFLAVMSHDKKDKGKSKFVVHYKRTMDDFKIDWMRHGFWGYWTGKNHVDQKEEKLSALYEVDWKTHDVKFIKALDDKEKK
Description: ForteBio.

Test [2] deals with T5, LukG_TCH1516.
T5 chain: T1 chain 2
The test can be described thus: ForteBio.

In test [3] the target is T1, LukGH of S. aureus USA300 TCH1516. Description: MSD; Fab.
In test [4] the target is T5, LukG_TCH1516. Description: MSD; Fab.

A word on the Kd: it is the concentration at which binding is half-saturated. Read a low Kd as a tighter complex.

Substitutions are numbered along the chain they refer to. Where only a bound is given, the exact number is not on record here.

B1: AB-32-6 (antibody)
chain 1: QLQLQESGPGLVKPSETLSLTCTVSGGSISSGSYYWDWIRQPPGKGLEWIGNIYKSGSTYYNPSLKSRVTISVDTSKNQFSLKLSSVTAADTAVYYCARERGMHYMDVWGKGTTVTVSS[human IgG1 constant region omitted here]
chain 2: DIQMTQSPSSLSASVGDRVTITCRASQSINSYLNWYQQKPGKAPKLLIYAASSLQSGVPSRFSGSGSGTDFTLTISSLQPEDFATYYCQQQFDPPFTFGGGTKVEIKRTVAAPSVFIFPPSDEQLKSGTASVVCLLNNFYPREAKVQWKVDNALQSGNSQESVTEQDSKDSTYSLSSTLTLSKADYEKHKVYACEVTHQGLSSPVTKSFNRGEC
With B1, the Kd in test [1] is below 0.12 nM; in the test with LukGH_MRSA252, 0.26 nM; with LukGH_H19 it was 0.23 nM; in the test with LukGH_MSHR1132 it was 0.23 nM; in the test with LukG_TCH1516 [2] it was 31 nM; in test [3] it was 0.0028 nM. Further, binding with LukG_TCH1516 [4] was characterised by a dissociation constant (Kd) of 0.26 nM.

B2: AB-32-9 (antibody)
chain 1: B1 chain 1 with Q1E
chain 2: B1 chain 2
As for B2, the dissociation constant (Kd) was below 0.12 nM in test [1]; 0.31 nM in the test with LukGH_MRSA252; 0.27 nM in the test with LukGH_H19; 0.28 nM with LukGH_MSHR1132; 29 nM in the test with LukG_TCH1516 [2].

B3: AB-34-6 (antibody)
chain 1: QVQLVQSGAEVKKPGSSVKVSCKASGGTIWSEAISWVRQAPGQGLEWMGGIIPIFGDAVYAQKFQGRVTITADESTSTAYMELSSLRSEDTAVYYCARAREGDDPYGMDVWGQGTTVTVSS[human IgG1 constant region omitted here]
chain 2: [about 100 residues omitted here][about 120 residues omitted here]
With B3, the Kd in test [1] stood at 0.18 nM; with LukGH_MRSA252 it was 0.2 nM; with LukGH_H19, 0.24 nM; with LukGH_MSHR1132, 0.62 nM; with LukG_TCH1516 [2], 12 nM; in test [3], 0.0012 nM.

B4: AB-34 (antibody)
chain 1: B3 chain 1 with I29F, W30S, E32W, D57E, V59A
chain 2: [about 100 residues omitted here][about 120 residues omitted here]
Turning to B4, the dissociation constant Kd in test [1] was 0.095 nM; in the test with LukGH_MRSA252, 0.21 nM; in the test with LukGH_H19, 0.22 nM; with LukGH_MSHR1132, 0.36 nM; with LukG_TCH1516 [2] it was 6.9 nM; in test [3] it was below 0.0005 nM. This molecule also showed a Kd in the test with LukG_TCH1516 [4] of 0.11 nM.

B5: AB-34-15 (antibody)
chain 1: B3 chain 1 with Q1E
chain 2: [about 100 residues omitted here][about 120 residues omitted here]
Turning to B5, the Kd was 0.2 nM in test [1]; 0.24 nM with LukGH_MRSA252; 0.27 nM with LukGH_H19; 0.78 nM with LukGH_MSHR1132; 12 nM in the test with LukG_TCH1516 [2].

B6: AB-34-14 (antibody)
chain 1: B3 chain 1 with Q1E, I29F, W30S, E32W, D57E, V59A
chain 2: [about 100 residues omitted here][about 120 residues omitted here]
Regarding B6, the Kd was found to be 0.094 nM in test [1]; 0.22 nM with LukGH_MRSA252; 0.24 nM with LukGH_H19; 0.38 nM with LukGH_MSHR1132; 6.8 nM in the test with LukG_TCH1516 [2].
